Among the data in publication PMC7819943, “Rice protein-binding microarrays: a tool to detect cis-acting elements near promoter regions in rice” are binding signal values, retold here.

The list shows a part of the results.

In this experiment the target is T1, OsWOX13 (Oryza sativa, UniProt Q5QMM3 1-267).
T1 sequence: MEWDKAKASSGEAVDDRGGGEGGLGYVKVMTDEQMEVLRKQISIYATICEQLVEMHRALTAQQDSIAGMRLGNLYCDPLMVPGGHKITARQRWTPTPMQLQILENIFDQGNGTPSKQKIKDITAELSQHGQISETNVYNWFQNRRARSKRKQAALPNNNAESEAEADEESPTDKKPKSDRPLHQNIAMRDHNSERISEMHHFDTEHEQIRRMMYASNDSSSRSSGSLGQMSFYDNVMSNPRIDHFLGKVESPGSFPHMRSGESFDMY
In words: protein-binding microarray (RPBM); PBS, 2% BSA, 51.3 ng/ul salmon testes DNA, 50 uM zinc acetate, 200 nM TF, 25 C, 1 h; high values mean tight binding. The following applies: protein: recombinant; tags: N-terminal polyhistidine and DsRed monomer fusion (pET32a); label: CyDye5-dUTP incorporated in the synthesized complementary strand; 3' TTTTT single-stranded linker to array surface; dsDNA, one strand shown. The method, boiled down: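 Binding signal here means per-feature fluorescence intensity in arbitrary units. The values were read on an Axon 4000B scanner after a custom Agilent array, double-stranded by primer extension with Cy5-dUTP, was incubated with 200 nM protein at 25 °C for 1 h in PBS with 2% BSA, salmon testes DNA and 50 µM zinc acetate, then washed. The proteins were transcription factors with an N-terminal polyhistidine tag and DsRed, expressed in E. coli BL21-CodonPlus and purified on Ni–NTA.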
“GATGATGATAGGTGTCGGGTGAAAATCTGATCTGCACACTCGGAGTCACCTAGTGCAG”: the binding signal is 6380 fluorescence intensity (a.u.).
The result for “CCAAATTTTAGCATTAACAGTTCTCTATGCATGCCACATTCGGAGTCACCTAGTGCAG” reads 7900 fluorescence intensity (a.u.); that for “GTCAAACCCAACTTAATTGTACAGTCAAACCGCCGTAATACGGAGTCACCTAGTGCAG”, 7140 fluorescence intensity (a.u.).
As for “AGATCATTTTCTCATCAATCCAGCCATTCTATCTATACTACGGAGTCACCTAGTGCAG”, the binding signal is 3740 fluorescence intensity (a.u.).
The result for “GATCAATCATGCCGGACACGTGGCGCGTGGCCAGGTGCCACGGAGTCACCTAGTGCAG” reads 3350 fluorescence intensity (a.u.); that for “TACTTAATTGGGAAACGTGACACTTCATGGTCCGTGAAGGCGGAGTCACCTAGTGCAG”, 35800 fluorescence intensity (a.u.).
The same measure for “ATTAATTAATGGTTCGTGCGTGCATGTCTATAAATATACTCGGAGTCACCTAGTGCAG”: 15600 fluorescence intensity (a.u.).
Take “AACTTGCGAAAATTTGACTATCAATTAGCTGGGCGATTGACGGAGTCACCTAGTGCAG”: the binding signal is 19600 fluorescence intensity (a.u.).
“AATTGATGAGTGTTGCTGCTTCGCTTGCACGAAAGTCGAGCGGAGTCACCTAGTGCAG”: the binding signal was 7830 fluorescence intensity (a.u.).
As to “TAATTAAAAGATTTGTCTCGTAATTTACACGCAATCTATGCGGAGTCACCTAGTGCAG”, the binding signal was 6670 fluorescence intensity (a.u.).
The same measure for “AGTATATGATTTACTTACTTTGGCTCTGGAGTCCTTGGATCGGAGTCACCTAGTGCAG”: 12100 fluorescence intensity (a.u.); for “AATAACTTCATCAATCTTATATAGACGTGTAATCTTAAAACGGAGTCACCTAGTGCAG”: 5670 fluorescence intensity (a.u.).
Regarding “CAAATTGATAGATGTCGCCATATCGATACAATGCATCATACGGAGTCACCTAGTGCAG”, the binding signal was 43200 fluorescence intensity (a.u.).
The same measure for “ATCCAAATTACAAGATGATAATAATTATTTCTTGGTCTTTCGGAGTCACCTAGTGCAG”: 20100 fluorescence intensity (a.u.); for “ATTTTCATCTATTTGCATTTAATAGGAGCTTCCCTGCACACGGAGTCACCTAGTGCAG”: 3900 fluorescence intensity (a.u.).
In the case of “GACAAAGATTGAGATTTGATAAGAGAGGCCTAAACTGAACCGGAGTCACCTAGTGCAG”, the binding signal is 14300 fluorescence intensity (a.u.).
The same measure for “ATTTCAAATTTCTACTATCAAATTGGAATATTCACGTAAACGGAGTCACCTAGTGCAG”: 5110 fluorescence intensity (a.u.).
The same measure for “AGTGACTTGTTTGATTAGATTTGCCGGGACGGGAGGACAACGGAGTCACCTAGTGCAG”: 26900 fluorescence intensity (a.u.).
The result for “TGTGATTATTCACATCATATTCTCCTCTGTAGGGACGGGCCGGAGTCACCTAGTGCAG” reads 26400 fluorescence intensity (a.u.).
Consider “TGGTAACCGGCTGATTGCCACCGGTAAATAGAGTGCCGCACGGAGTCACCTAGTGCAG”, for which the binding signal was 13500 fluorescence intensity (a.u.).
Take “TGTAAATAGAATAAAATTAAATTTACAATTGGAGAGCCCTCGGAGTCACCTAGTGCAG”: the binding signal is 29900 fluorescence intensity (a.u.).
The result for “AGAATTTAAATTTGCTAATTGAAAACACTATCCCACATCACGGAGTCACCTAGTGCAG” reads 41300 fluorescence intensity (a.u.); that for “AAAGGATGATTATGTTACCATGGAAGGATAATACTATGGACGGAGTCACCTAGTGCAG”, 12400 fluorescence intensity (a.u.); that for “ATAATTGCCCCTGGTTGGACGTGGTAAGTCAAGTCTATTTCGGAGTCACCTAGTGCAG”, 4310 fluorescence intensity (a.u.).
The result for “TTTAAACCATGATTACTGAATTATTGATATGTTCATGTTCCGGAGTCACCTAGTGCAG” reads 30000 fluorescence intensity (a.u.); that for “AGCCTGATTGGCTTGGCCAAAGGTTCAAATCTTGAAAATACGGAGTCACCTAGTGCAG”, 16800 fluorescence intensity (a.u.); that for “GGGCGGGTGATCGCTGGGCGGGTGGGTGAGCGATCACCCACGGAGTCACCTAGTGCAG”, 3440 fluorescence intensity (a.u.).
The same measure for “CAAGCTAATTGCTAATGCTATATTGCCATGTTGATTTGAACGGAGTCACCTAGTGCAG”: 30700 fluorescence intensity (a.u.).
Take “CCACGTTAAAATTAGAAGTTTGATTAAAATTAGAAGTTTGCGGAGTCACCTAGTGCAG”: the binding signal is 5720 fluorescence intensity (a.u.).
As for “GTTAATTAGTCGTACATTAACGATTTTCTCGTTTTATGTGCGGAGTCACCTAGTGCAG”, the binding signal is 48800 fluorescence intensity (a.u.).
The result for “GATTAATTAGACTTAATAAATTTGTCTCACGGTTTACGGACGGAGTCACCTAGTGCAG” reads 40500 fluorescence intensity (a.u.); that for “AAAACAAATTAAACAGCAACTACATAATGTATTGTCATAGCGGAGTCACCTAGTGCAG”, 6320 fluorescence intensity (a.u.); that for “AACTTATAAATTGATTTATAAGTCTAAATAAAGAGGCACCCGGAGTCACCTAGTGCAG”, 55800 fluorescence intensity (a.u.).
The result for “GATCCAGATTATAAATTTATACTATATATCAACTAATATACGGAGTCACCTAGTGCAG” reads 8450 fluorescence intensity (a.u.); that for “ATGCAATGATTTAGAGAGGCAATGCACAATGATTTAGTTCCGGAGTCACCTAGTGCAG”, 10700 fluorescence intensity (a.u.); that for “TGATGAGATTGATCCGATGATCTCCTCTTTAAATTTCTCGCGGAGTCACCTAGTGCAG”, 19100 fluorescence intensity (a.u.).
The result for “TACAAACTATAATTTGCACTATGTCCGTATTAATGAAAATCGGAGTCACCTAGTGCAG” reads 7290 fluorescence intensity (a.u.); that for “ATATTATAATTATGCGTTTGTTATGTGGGATATTATTTATCGGAGTCACCTAGTGCAG”, 10100 fluorescence intensity (a.u.); that for “GAAATAATAATATTAATTGAATGCAGATTAGGTGTAGATACGGAGTCACCTAGTGCAG”, 30400 fluorescence intensity (a.u.).
For the sequence “ATTAATTAGCTGCCCGCAGACAAGACCCGTGACTTTGGCCCGGAGTCACCTAGTGCAG”, the binding signal is 23800 fluorescence intensity (a.u.).
The same measure for “CAATAATTGTATCTCTTGTGAGTTGCCACCGGAGGCCCATCGGAGTCACCTAGTGCAG”: 15900 fluorescence intensity (a.u.); for “ATCTATAATTTGTTTTGTTATTAGTCTATATTTAATACTTCGGAGTCACCTAGTGCAG”: 7820 fluorescence intensity (a.u.).
